Results published in the supplement of paper PMC10369915.
Some of the results follow. No stated cut-off is given here; in the data, active = 3.2 or more and inactive = the rest. Only a few entries rise above the background.

target: SHP2 C-SH2 domain E139D; test: enrichment score (SH2-bound / input frequency) (ratio); bacterial display of known human phosphotyrosine sites (pTyr-Var adds point mutants) read by sequencing; higher = stronger binding; tyrosines were phosphorylated by kinases first; conditions: peptide library: pTyr-Var
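Further: displayed peptides selected on beads carrying the immobilized SH2 domain, with library peptides lacking any tyrosine serving as negative controls.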

Enrichment score, inactive:
CIILLYIFLKN [STXBP1_Y411_R406C] 1.99, AAVPAYDKIQV [STXBP2_Y401_R405Q] 0.678, KEAQVYQAFKL [SUCLG2_Y343] 0.66, KEAQVYQAFRL [SUCLG2_Y343_K347R] 0.807, SFCFRYRCAPR [SUMF1_Y344_A348P_YF] 0.268, GESKDYALHVG [SVIL_Y185] 0.648, RQSRNYLGGFA [SYK_Y47] 0.439, RQSHNYLGGFA [SYK_Y47_R45H] 0.613, EYLHKYKGFKI [SYNE1_Y6953_Q6951H] 0.76, EFLHKYKGFKI [SYNE1_Y6953_Q6951H_YF] 0.726, EFLQKYKGFKI [SYNE1_Y6953_YF] 0.755, YRKNTYNVKST [SYNE2_Y575_I574T] 0.447, REVPVYISEDS [SYNM_Y460_G462S] 0.757, APGDAYGDAGF [SYP_Y250_YF] 0.515, GFQPEYGQPAG [SYP_Y278_D277E_YF] 0.371, VTVLDYDKIGK [SYT1_Y365] 0.91, GLSDPYVKIHL [SYT2_Y309] 1.02, GLSAPYVKIHL [SYT2_Y309_D307A] 1.07

target: SHP2 C-SH2 domain wild-type; test: as above; conditions: peptide library: pTyr-Var

Enrichment score, inactive:
CIILLYIFLKN [STXBP1_Y411_R406C] 1.71, AAVPAYDKIQV [STXBP2_Y401_R405Q] 0.904, KEAQVYQAFKL [SUCLG2_Y343] 0.903, KEAQVYQAFRL [SUCLG2_Y343_K347R] 0.674, SFCFRYRCAPR [SUMF1_Y344_A348P_YF] 0.291, GESKDYALHVG [SVIL_Y185] 0.52, RQSRNYLGGFA [SYK_Y47] 0.449, RQSHNYLGGFA [SYK_Y47_R45H] 0.604, EYLHKYKGFKI [SYNE1_Y6953_Q6951H] 0.62, EFLHKYKGFKI [SYNE1_Y6953_Q6951H_YF] 0.975, EFLQKYKGFKI [SYNE1_Y6953_YF] 0.92, YRKNTYNVKST [SYNE2_Y575_I574T] 0.372, REVPVYISEDS [SYNM_Y460_G462S] 1.02, APGDAYGDAGF [SYP_Y250_YF] 0.438, GFQPEYGQPAG [SYP_Y278_D277E_YF] 0.455, VTVLDYDKIGK [SYT1_Y365] 0.843, GLSDPYVKIHL [SYT2_Y309] 1.28, GLSAPYVKIHL [SYT2_Y309_D307A] 2.62

target: SHP2 N-SH2 domain L43F; test: as above; conditions: peptide library: pTyr-Var

Enrichment score, inactive:
CIILLYIFLKN [STXBP1_Y411_R406C] 1.16, AAVPAYDKIQV [STXBP2_Y401_R405Q] 0.792, KEAQVYQAFKL [SUCLG2_Y343] 0.737, KEAQVYQAFRL [SUCLG2_Y343_K347R] 0.71, SFCFRYRCAPR [SUMF1_Y344_A348P_YF] 0.275, GESKDYALHVG [SVIL_Y185] 0.713, RQSRNYLGGFA [SYK_Y47] 0.351, RQSHNYLGGFA [SYK_Y47_R45H] 0.742, EYLHKYKGFKI [SYNE1_Y6953_Q6951H] 0.353, EFLHKYKGFKI [SYNE1_Y6953_Q6951H_YF] 0.759, EFLQKYKGFKI [SYNE1_Y6953_YF] 0.763, YRKNTYNVKST [SYNE2_Y575_I574T] 0.435, REVPVYISEDS [SYNM_Y460_G462S] 0.675, APGDAYGDAGF [SYP_Y250_YF] 0.468, GFQPEYGQPAG [SYP_Y278_D277E_YF] 0.524, VTVLDYDKIGK [SYT1_Y365] 0.99, GLSDPYVKIHL [SYT2_Y309] 1.36, GLSAPYVKIHL [SYT2_Y309_D307A] 1.51

target: SHP2 N-SH2 domain T42A; test: as above; conditions: peptide library: pTyr-Var

Enrichment score, inactive:
CIILLYIFLKN [STXBP1_Y411_R406C] 1.58, AAVPAYDKIQV [STXBP2_Y401_R405Q] 0.797, KEAQVYQAFKL [SUCLG2_Y343] 0.769, KEAQVYQAFRL [SUCLG2_Y343_K347R] 0.702, SFCFRYRCAPR [SUMF1_Y344_A348P_YF] 0.277, GESKDYALHVG [SVIL_Y185] 0.648, RQSRNYLGGFA [SYK_Y47] 0.286, RQSHNYLGGFA [SYK_Y47_R45H] 0.579, EYLHKYKGFKI [SYNE1_Y6953_Q6951H] 0.688, EFLHKYKGFKI [SYNE1_Y6953_Q6951H_YF] 0.638, EFLQKYKGFKI [SYNE1_Y6953_YF] 0.704, YRKNTYNVKST [SYNE2_Y575_I574T] 0.41, REVPVYISEDS [SYNM_Y460_G462S] 0.578, APGDAYGDAGF [SYP_Y250_YF] 0.505, GFQPEYGQPAG [SYP_Y278_D277E_YF] 0.324, VTVLDYDKIGK [SYT1_Y365] 0.721, GLSDPYVKIHL [SYT2_Y309] 1.77, GLSAPYVKIHL [SYT2_Y309_D307A] 3.09

target: SHP2 N-SH2 domain T52S; test: as above; conditions: peptide library: pTyr-Var

Enrichment score, inactive:
CIILLYIFLKN [STXBP1_Y411_R406C] 1.78, AAVPAYDKIQV [STXBP2_Y401_R405Q] 0.705, KEAQVYQAFKL [SUCLG2_Y343] 0.73, KEAQVYQAFRL [SUCLG2_Y343_K347R] 0.852, SFCFRYRCAPR [SUMF1_Y344_A348P_YF] 0.187, GESKDYALHVG [SVIL_Y185] 0.551, RQSRNYLGGFA [SYK_Y47] 0.376, RQSHNYLGGFA [SYK_Y47_R45H] 0.688, EYLHKYKGFKI [SYNE1_Y6953_Q6951H] 0.538, EFLHKYKGFKI [SYNE1_Y6953_Q6951H_YF] 0.928, EFLQKYKGFKI [SYNE1_Y6953_YF] 0.776, YRKNTYNVKST [SYNE2_Y575_I574T] 0.509, REVPVYISEDS [SYNM_Y460_G462S] 1.04, APGDAYGDAGF [SYP_Y250_YF] 0.458, GFQPEYGQPAG [SYP_Y278_D277E_YF] 0.536, VTVLDYDKIGK [SYT1_Y365] 0.878, GLSDPYVKIHL [SYT2_Y309] 1.07, GLSAPYVKIHL [SYT2_Y309_D307A] 1.36

target: SHP2 N-SH2 domain wild-type; test: as above; conditions: peptide library: pTyr-Var

Enrichment score, inactive:
CIILLYIFLKN [STXBP1_Y411_R406C] 1.44, AAVPAYDKIQV [STXBP2_Y401_R405Q] 1.03, KEAQVYQAFKL [SUCLG2_Y343] 0.942, KEAQVYQAFRL [SUCLG2_Y343_K347R] 0.773, SFCFRYRCAPR [SUMF1_Y344_A348P_YF] 0.203, GESKDYALHVG [SVIL_Y185] 0.887, RQSRNYLGGFA [SYK_Y47] 0.296, RQSHNYLGGFA [SYK_Y47_R45H] 0.621, EYLHKYKGFKI [SYNE1_Y6953_Q6951H] 0.686, EFLHKYKGFKI [SYNE1_Y6953_Q6951H_YF] 1.12, EFLQKYKGFKI [SYNE1_Y6953_YF] 0.891, YRKNTYNVKST [SYNE2_Y575_I574T] 0.655, REVPVYISEDS [SYNM_Y460_G462S] 1.19, APGDAYGDAGF [SYP_Y250_YF] 0.541, GFQPEYGQPAG [SYP_Y278_D277E_YF] 0.7, VTVLDYDKIGK [SYT1_Y365] 0.813, GLSDPYVKIHL [SYT2_Y309] 1.03, GLSAPYVKIHL [SYT2_Y309_D307A] 1.42
